Measurements reported in patent US8633212B2, “Inhibitors of beta-secretase” (Vitae Pharmaceuticals, Inc., priority 2009, dated 2014).

These compounds were tested against ectodomain of BACE (aa 1-454) fused to a myc-his tag, secreted from HEK293/BACEect. cells (Homo sapiens (Human), UniProt P56817). Conditions: not given.
`COC1CCC2(CC1)Cc1ccc(CCC3CC3)cc1C21N=C(N)N([C@H](C)c2ccccc2)C1=O` (some centres unmarked) [Compound 362] was tested, and the IC50 was 81.1 nM.

Same assay, conditions: footnote b: protocols described in Example 435
In the case of `COC1CCC2(CC1)Cc1ccc(CCC3CC3)cc1C21N=C(N)N([C@@H](C)c2ccccc2)C1=O` (single isomer, unassigned) [Compound 360], the IC50 is reported as 97.8 nM.
`CN1C(=O)C2(N=C1N)c1cc(-c3cccc(C#N)c3)ccc1CC21CCc2ccccc2CC1` (centres unmarked) [Compound 29] was tested, and the IC50 was 5.3 nM.
`CN1C(=O)C2(N=C1N)c1cc(Br)ccc1CC21CCc2ccccc2CC1` (centres unmarked) [Compound 56] showed an IC50 of 204 nM.
Work on `CN1OC2(N=C1N)c1cc(-c3cccc(C#N)c3)ccc1CC21CCC(Cc2ccccc2)CC1` (centres unmarked) [Compound 120] yielded an IC50 of 3500 nM.
In the case of `CC#Cc1cncc(-c2ccc3c(c2)C2(N=C(N)N(C(C)C)C2=O)C2(CCC(OC)CC2)C3)c1` (centres unmarked) [Compound 166], the IC50 is reported as 11.5 nM.
Compound `COC1CCC2(CC1)Cc1ccc(OCC3CC3)cc1[C@]21N=C(N)N(C(C)C)C1=O` (some centres unmarked) [Compound 174] has an IC50 of 23.5 nM.
With `COC1CCC2(CC1)Cc1ccc(N3CCCC3)cc1C21N=C(N)N(C)C1=O` (centres unmarked) [Compound 232] the IC50 was 145 nM.
With `COc1ccc2c(c1)C1(N=C(N)N(C)C1=O)C1(CCC(OC)CC1)C2` (centres unmarked) [Compound 233] the IC50 was 145 nM.
For `COC1CCC2(CC1)Cc1ccc(OCCN(C)C)cc1C21N=C(N)N(C)C1=O` (centres unmarked) [Compound 235], the IC50 was 368 nM.
In the case of `COCCOc1ccc2c(c1)C1(N=C(N)N(C)C1=O)C1(CCC(OC)CC1)C2` (centres unmarked) [Compound 237], the IC50 is reported as 10.6 nM.
With `COC1CCC2(CC1)Cc1ccc(OC3CC3)cc1C21N=C(N)N(C)C1=O` (centres unmarked) [Compound 239] the IC50 was 29.3 nM.
Work on `COC1CCC2(CC1)Cc1ccc(OC(F)(F)C(F)F)cc1[C@@]21N=C(N)N(C)C1=O` (some centres unmarked) [Compound 241] yielded an IC50 of 9.6 nM.
With `COC1CCC2(CC1)Cc1ccc(OC(F)(F)C(F)F)cc1[C@]21N=C(N)N(C)C1=O` (some centres unmarked) [Compound 243] the IC50 was 6.5 nM.
In the case of `COC1CCC2(CC1)Cc1ccc(OCC3CC3)cc1C21N=C(N)N(C)C1=O` (centres unmarked) [Compound 244], the IC50 is reported as 3.5 nM.
`COC1CCC2(CC1)Cc1ccc(OC(F)F)cc1C21N=C(N)N(C)C1=O` (centres unmarked) [Compound 247] showed an IC50 of 55.4 nM.
`COC1CCC2(CC1)Cc1ccc(Oc3ccccc3)cc1C21N=C(N)N(C)C1=O` (centres unmarked) [Compound 248] was tested, and the IC50 was 48 nM.
`COC1CCC2(CC1)Cc1cc(F)c(C#CC3CC3)cc1C21N=C(N)N(C)C1=O` (centres unmarked) [Compound 255] gave an IC50 of 618 nM.
In the case of `COC1CCC2(CC1)Cc1ccc(CCC(F)(F)F)cc1C21N=C(N)N(C)C1=O` (centres unmarked) [Compound 256], the IC50 is reported as 11.6 nM.
`CN1C(=O)C2(N=C1N)c1cc(C#CC3CC3)ccc1CC21CCC(OC(=O)[C@@H](N)Cc2ccc(O)cc2)CC1` (some centres unmarked) [Compound 258] was tested, and the IC50 was 640 nM.
`C=C(c1ccc2c(c1)C1(N=C(N)N(C)C1=O)C1(CCC(OC)CC1)C2)C(F)(F)F` (centres unmarked) [Compound 260] showed an IC50 of 1070 nM.
`COC1CCC2(CC1)Cc1ccc(C(C)C(F)(F)F)cc1C21N=C(N)N(C)C1=O` (centres unmarked) [Compound 263] showed an IC50 of 716 nM.
`CN1C(=O)C2(N=C1N)c1cc(Br)ccc1CC21CCC(Cc2ccccc2)CC1` (centres unmarked) [Compound 265] showed an IC50 of 634 nM.
Work on `COC1CCC2(CC1)Cc1ccc(C#CC3CC3)cc1[C@]21N=C(N)N(C[C@H]2CCCO2)C1=O` (some centres unmarked) [Compound 335] yielded an IC50 of 2.2 nM.
`COC1CCC2(CC1)Cc1ccc(C#CC3CC3)cc1[C@@]21N=C(N)N(C[C@@H]2CCCO2)C1=O` (some centres unmarked) [Compound 336] showed an IC50 of 207 nM.
`COC1CCC2(CC1)Cc1ccc(C#CC3CC3)cc1[C@@]21N=C(N)N(C[C@H]2CCCO2)C1=O` (some centres unmarked) [Compound 337] gave an IC50 of 262 nM.
With `COCC(C)N1C(=O)[C@]2(N=C1N)c1cc(CCC3CC3)ccc1CC21CCC(OC)CC1` (some centres unmarked) [Compound 350] the IC50 was 482 nM.
Compound `COC1CCC2(CC1)Cc1ccc(CCC3CC3)cc1C21N=C(N)N(CC2CCO2)C1=O` (centres unmarked) [Compound 377] has an IC50 of 16.5 nM.
With `COC1CCC2(CC1)Cc1ccc(CCC3CC3)cc1[C@]21N=C(N)N(C[C@H]2CCO2)C1=O` (some centres unmarked) [Compound 379] the IC50 was 887 nM.
`COC1CCC2(CC1)Cc1ccc(CCC3CC3)cc1C21N=C(N)N(Cc2cncs2)C1=O` (centres unmarked) [Compound 386] was tested, and the IC50 was 7.8 nM.
In the case of `CO[C@H]1CC[C@]2(CC1)Cc1ccc(C#N)cc1C21N=C(N)N(Cc2ccccc2)C1=O` (some centres unmarked) [Compound 390], the IC50 is reported as 26.1 nM.
Work on `CO[C@H]1CC[C@]2(CC1)Cc1ccc(C(=O)O)cc1C21N=C(N)N(Cc2ccccc2)C1=O` (some centres unmarked) [Compound 391] yielded an IC50 of 566 nM.
`COCCOc1ccc2c(c1)[C@@]1(N=C(N)N(C)C1=O)C1(CCc3ccccc3CC1)C2` [Compound 406] gave an IC50 of 6.3 nM.
Compound `COCCOc1ccc2c(c1)[C@]1(N=C(N)N(C)C1=O)C1(CCc3ccccc3CC1)C2` [Compound 407] has an IC50 of 2130 nM.
Work on `COC1CCC2(CC1)Cc1ccc(Br)cc1C21CON(C)C(N)=N1` (centres unmarked) [Compound 435] yielded an IC50 of 2340 nM.
Compound `NC1=NC2(CS1)c1cc(Br)ccc1CC21CCC(O)CC1` (centres unmarked) [Compound 443] has an IC50 of 6230 nM.
`COC1CCC2(CC1)Cc1ccc(Br)cc1C21CSC(N)=N1` (centres unmarked) [Compound 444] showed an IC50 of 1450 nM.
`CC(=O)N1CCC2(CC1)Oc1ccc(Br)cc1C21N=C(N)N(C)C1=O` (centres unmarked) [Compound 447] showed an IC50 of 13500 nM.
`CC(=O)N1CCC2(CC1)Oc1ccc(-c3cccc(C#N)c3)cc1C21N=C(N)N(C)C1=O` (centres unmarked) [Compound 448] was tested, and the IC50 was 1950 nM.
Compound `CCC(C)N1C(=O)C2(N=C1N)c1cc(C#N)ccc1C[C@]21CC[C@@H](OC)CC1` (some centres unmarked) [Compound 481] has an IC50 of 274 nM.
With `CCCCN1C(=O)C2(N=C1N)c1cc(C#N)ccc1CC21CCC(OC)CC1` (centres unmarked) [Compound 482] the IC50 was 42.8 nM.
`COCCOc1ccc2c(c1)[C@@]1(N=C(N)N(C)C1=O)C1(CCC(OC)CC1)C2` (some centres unmarked) [Compound 483] gave an IC50 of 960 nM.
In the case of `COCCOc1ccc2c(c1)[C@]1(N=C(N)N(C)C1=O)C1(CCC(OC)CC1)C2` (some centres unmarked) [Compound 484], the IC50 is reported as 7.2 nM.
`CCCN1C(=O)C2(N=C1N)c1cc(C#N)ccc1CC21CCC(OC)CC1` (centres unmarked) [Compound 485] was tested, and the IC50 was 99.1 nM.
With `COCCOc1ccc2c(c1)C1(N=C(N)N(C(C)C)C1=O)C1(CCC(OC)CC1)C2` (centres unmarked) [Compound 486] the IC50 was 87.1 nM.
`CO[C@H]1CC[C@]2(CC1)Cc1ccc(CC3CCCCC3)cc1C21N=C(N)N(C)O1` (some centres unmarked) [Compound 488] showed an IC50 of 76.3 nM.
`CO[C@H]1CC[C@]2(CC1)Cc1ccc(CC(C)C)cc1C21N=C(N)N(C(C)C)C1=O` (some centres unmarked) [Compound 491] gave an IC50 of 78.2 nM.
Work on `CO[C@H]1CC[C@]2(CC1)Cc1ccc(CCc3ccccc3)cc1C21N=C(N)N(C)O1` (some centres unmarked) [Compound 492] yielded an IC50 of 403 nM.
With `CCCc1ccc2c(c1)C1(N=C(N)N(C(C)C)C1=O)[C@]1(CC[C@H](OC)CC1)C2` (some centres unmarked) [Compound 494] the IC50 was 54.3 nM.
Work on `CO[C@H]1CC[C@]2(CC1)Cc1ccc(CC3CCCCC3)cc1C21N=C(N)N(C(C)C)C1=O` (some centres unmarked) [Compound 495] yielded an IC50 of 44.3 nM.
Work on `CO[C@H]1CC[C@]2(CC1)Cc1ccc(CCc3ccccc3)cc1C21N=C(N)N(C(C)C)C1=O` (some centres unmarked) [Compound 496] yielded an IC50 of 188 nM.
`CO[C@H]1CC[C@]2(CC1)Cc1ccc(C(C)C)cc1C21N=C(N)N(C)O1` (some centres unmarked) [Compound 497] was tested, and the IC50 was 144 nM.
For `CO[C@H]1CC[C@]2(CC1)Cc1ccc(C(C)C)cc1C21N=C(N)N(C(C)C)C1=O` (some centres unmarked) [Compound 499], the IC50 was 149 nM.
Work on `CCc1ccc2c(c1)C1(N=C(N)N(C(C)C)C1=O)[C@]1(CC[C@H](OC)CC1)C2` (some centres unmarked) [Compound 500] yielded an IC50 of 199 nM.
`CCCCCc1ccc2c(c1)C1(N=C(N)N(C(C)C)C1=O)[C@]1(CC[C@H](OC)CC1)C2` (some centres unmarked) [Compound 503] was tested, and the IC50 was 39 nM.
For `CO[C@H]1CC[C@]2(CC1)Cc1ccc(OC(C)C)cc1C21N=C(N)N(C)O1` (some centres unmarked) [Compound 505], the IC50 was 171 nM.
`CO[C@H]1CC[C@]2(CC1)Cc1ccc(OCC3CCC3)cc1C21N=C(N)N(C(C)C)C1=O` (some centres unmarked) [Compound 506] was tested, and the IC50 was 34.3 nM.
With `CO[C@H]1CC[C@]2(CC1)Cc1ccc(C3CCCC3)cc1C21N=C(N)N(C(C)C)C1=O` (some centres unmarked) [Compound 507] the IC50 was 128 nM.
In the case of `CO[C@H]1CC[C@]2(CC1)Cc1ccc(CC(C)(C)C)cc1C21N=C(N)N(C(C)C)C1=O` (some centres unmarked) [Compound 509], the IC50 is reported as 267 nM.
With `COc1cccc(-c2ccc3c(c2)C2(N=C(N)N(C)C2=O)[C@]2(CC[C@H](OC(C)C)CC2)C3)c1` (some centres unmarked) [Compound 510] the IC50 was 61 nM.
`CO[C@H]1CC[C@]2(CC1)Cc1ccc(CCC(C)C)cc1C21N=C(N)N(CC(F)F)C1=O` (some centres unmarked) [Compound 511] showed an IC50 of 9 nM.
`CO[C@H]1CC[C@]2(CC1)Cc1ccc(CCC(C)C)cc1C21N=C(N)N(CC(F)(F)F)C1=O` (some centres unmarked) [Compound 512] was tested, and the IC50 was 77 nM.
In the case of `COCCN1C(=O)C2(N=C1N)c1cc(CCC(C)C)ccc1C[C@]21CC[C@@H](OC)CC1` (some centres unmarked) [Compound 513], the IC50 is reported as 9 nM.
`CCN1C(=O)C2(N=C1N)c1cc(CCC(C)C)ccc1C[C@]21CC[C@@H](OC)CC1` (some centres unmarked) [Compound 514] showed an IC50 of 8 nM.
In the case of `CO[C@H]1CC[C@]2(CC1)Cc1ccc(CCC(C)C)cc1C21N=C(N)N(C)C1=O` (some centres unmarked) [Compound 515], the IC50 is reported as 10 nM.
Work on `CO[C@H]1CC[C@]2(CC1)Cc1ccc(OCc3ccccc3)cc1C21N=C(N)N(C)O1` (some centres unmarked) [Compound 516] yielded an IC50 of 890 nM.
In the case of `COc1cccc(-c2ccc3c(c2)C2(N=C(N)N(C)O2)[C@]2(CC[C@](C)(O)CC2)C3)c1` (some centres unmarked) [Compound 517], the IC50 is reported as 877 nM.
With `CO[C@H]1CC[C@]2(CC1)Cc1cc(F)c(OCC(F)(F)F)cc1C21N=C(N)N(C)O1` (some centres unmarked) [Compound 518] the IC50 was 53 nM.
For `CO[C@H]1CC[C@]2(CC1)Cc1ccc(C#CC3CC3)cc1C21N=C(N)N(CC(=O)O)C1=O` (some centres unmarked) [Compound 524], the IC50 was 5 nM.
For `CO[C@H]1CC[C@]2(CC1)Cc1ccc(-c3ncco3)cc1C21N=C(N)N(CCF)C1=O` (some centres unmarked) [Compound 529], the IC50 was 128 nM.
With `CO[C@H]1CC[C@]2(CC1)Cc1ccc(-c3nccs3)cc1C21N=C(N)N(CCF)C1=O` (some centres unmarked) [Compound 530] the IC50 was 115 nM.
For `CO[C@H]1CC[C@]2(CC1)Cc1ccc(Cl)cc1C21N=C(N)N(C(C)C)C1=O` (some centres unmarked) [Compound 531], the IC50 was 169 nM.
Compound `CO[C@H]1CC[C@]2(CC1)Cc1ccc(-c3ncc(C)s3)cc1C21N=C(N)N(CC(F)(F)F)C1=O` (some centres unmarked) [Compound 532] has an IC50 of 320 nM.
`CCCSc1ccc2c(c1)C1(N=C(N)N(CCOC)C1=O)C1(CCC(OC)CC1)C2` (centres unmarked) [Compound 533] was tested, and the IC50 was 8.9 nM.
With `COCCN1C(=O)C2(N=C1N)c1cc(OC(F)F)ccc1C[C@]21CC[C@@H](OC)CC1` (some centres unmarked) [Compound 534] the IC50 was 128 nM.
Compound `COCCN1C(=O)C2(N=C1N)c1cc(C3CC3)ccc1C[C@]21CC[C@@H](OC)CC1` (some centres unmarked) [Compound 536] has an IC50 of 172 nM.
In the case of `COCCN1C(=O)C2(N=C1N)c1cc(Cl)ccc1C[C@]21CC[C@@H](OC)CC1` (some centres unmarked) [Compound 537], the IC50 is reported as 88 nM.
